We go through 100 compounds from ChEMBL document CHEMBL1156829.

SMILES strings stand for the structures. The full ranking holds about 5,400 compounds; the median of “IFI” is about 2, and the highest 2% start at about 22. Some of the results follow.

A short description of the test: NOVARTIS: Inhibition Frequency Index (IFI) - the number of HTS assays where a compound showed > 50% inhibition/induction, expressed as a percentage of the number of assays in which the compound was tested. It counts as functional.
Turning to `OCCNc1nc(Nc2ccc(Cl)cc2)nc2ccccc12`, the IFI worked out at 1.47%. Turning to `O=C(C1Cc2ccccc2CN1S(=O)(=O)c1ccc(F)cc1)N1CCOCC1` (stereo not given), the IFI worked out at 0%. The compound `Fc1ccc2[nH]c3c(NCCN4CCCCC4)ncnc3c2c1` returned an IFI of 5.88%. The compound `c1ccc(CNc2nc(Nc3ccccc3)nc3ccccc23)cc1` returned an IFI of 8.21%. Take `COc1cnc(-c2ccccn2)nc1N1CCCC1`: the IFI turned out to be 8.43%.

Compound `COc1cc2nc(N3CCN(c4nc(N)c5cc(OC)c(OC)cc5n4)CC3)nc(N)c2cc1OC` came in with an IFI of 23.1%. With `Cc1ccc(CN2C[C@H](n3cnnn3)C[C@H]2C(=O)NCCc2cccc(Cl)c2)c(C)c1` the figure was 1.94%.

In the case of `CCN(CC)CCN(C)C1CCc2c(c(C(=O)N3CCCC3)nn2C)C1` (stereo not given), the IFI amounted to 1.1%. In turn, `O=C(Cc1cccs1)N1CCOc2c(cc(-c3csc4ccccc34)cc2OCCc2ccccn2)C1` registered an IFI of 1.96%. The compound `COc1ccc(CCNC(=S)Nc2ccccc2C)cc1OC` displayed an IFI of 0%. Next, `CC(C)CN(C(C)C(=O)NC(CN1CCCC1)c1ccccc1)S(=O)(=O)Cc1ccccc1` (stereo not given): 1.96%; `CC(C)CNC(=O)c1cnc(NCCCN2CCCCC2C)nc1NCC(C)C` (stereo not given): 1.92%. `Cc1ccc(C2C3=C(CC(C)(C)CC3=O)N(Cc3ccc4c(c3)OCO4)C3=C2C(=O)CC(C)(C)C3)cc1` yielded an IFI of 0%. `CCOC(=O)c1c(-c2ccc3c(c2)OCO3)[nH]c2cccc(OC)c2c1=O` registered an IFI of 0%. Next, `COc1ccc(C(OCC(=O)N2CCSCC2)c2ccncc2Cl)cc1` (stereo not given): 0.98%.

As to `Cc1ccc(NC(=O)ON=C2CCCC2)cc1`, the IFI stood at 0%. Next, `COC(=O)C1=C(C)NC2=C(C(=O)CC(c3ccc(OC)c(OC)c3)C2)C1c1ccccc1F` (stereo not given): 4.76%. With `COc1ccc(OC)c(C2C3=C(CC(C)(C)CC3=O)N(c3ccc(Cl)c(Cl)c3)C3=C2C(=O)CC(C)(C)C3)c1` the figure was 0%; with `O=C(Nc1ccon1)c1cc(-c2cccnc2)nc2ccc(Cl)cc12`, 0%; with `Cc1ccc(N2C(=O)C3C(C2=O)C2(c4ccccc4)C(=O)C3(c3ccccc3)C(c3ccccc3)=C2c2ccccc2)cc1[N+](=O)[O-]` (stereo not given), 0%. With `CC(=O)Nc1ccc(S(=O)(=O)NC2C(C)(C)C3CC[C@]2(C)C3)cc1` (stereo not given in full) the figure was 1.7%. Compound `COc1cc2c(cc1OC)-c1cc3ccc(OC)c(OC)c3c[n+]1CC2` came in with an IFI of 1.61%. For the compound `CC(CCCC(C)(C)O)Nc1cncc(-c2ccc(C(N)=O)cc2)n1` (stereo not given), the IFI is 0%. With `Cc1ccc2c(c1)c(-c1ccccc1)c(-c1ccccc1)n2CC(O)CN1CCN(Cc2ccccc2)CC1` (stereo not given) the figure was 3.6%. Next, `CCOC(=O)c1cnc2ccc(OCC)cc2c1NCCCN(CC)CC`: 8.33%; `O=C(CNC(=O)c1ccccc1)Oc1ccc(Cl)cc1`: 7.14%; `CN1CCc2c(C#N)c(N3CCCC3)nc(N3CCCC3)c2C1`: 3.51%. With `CN1C(=O)NC(c2cccnc2)C(C(=O)c2cccs2)C1(O)C(F)(F)F` (stereo not given) the figure was 0%; with `COc1ccc(C2C(C(=O)OC3CCCCC3)=C(C)Nc3nnnn32)cc1` (stereo not given), 0%; with `COc1cc(NC(=O)Cn2ccc3ccc([N+](=O)[O-])cc32)cc(OC)c1OC`, 3.03%. Compound `O=C(Nc1cccc(C(F)(F)F)c1)c1ccc(-c2cccs2)cc1` gave an IFI of 5.88%. On to `CCC1=NN2C(=N)/C(=C/c3ccc(OCCOc4ccc(Br)cc4)c(OC)c3)C(=O)N=C2S1`, for which the IFI worked out at 0%. With `Cc1cc(C)c2c(c1)-c1c(ssc1=S)C(C)(C)N2C(=O)c1ccccc1` the figure was 0%. With `COc1ccc(Nc2nc(Nc3ccc(OC)cc3)c3ccccc3n2)cc1` the figure was 7.52%.

Take `COc1ccccc1NC(=O)N(CCC(C)C)C(C)c1nc2ccccc2c(=O)n1-c1ccccc1Cl` (stereo not given): the IFI came to 0.917%. With `CC(C)(C)CC(=O)NCc1ccc(OC2CCN(CC(c3ccccc3)c3ccccc3)CC2)cc1` the figure was 7.04%; with `Cn1c(SCCCCNC(=O)c2cc([N+](=O)[O-])cc([N+](=O)[O-])c2)nc(-c2ccccc2)c1-c1ccccc1`, 1.87%. Compound `CCCc1c(C)nc2ccccc2c1O` registered an IFI of 1.59%. Next, `COc1ccc(-n2c(SC(C)C)nc3sc4c(c3c2=O)CCN(C)C4)cc1`: 2.44%. Next, `CC(=O)C(=NNc1cc(C(F)(F)F)cc(C(F)(F)F)c1)C(C)=O`: 1.45%; `CCCc1c(CC)c(=N)c2ccccc2n1C`: 7.69%. As to `COc1ccc([C@@H]2C[C@H](OC(=O)c3ccc4c(c3)OCO4)C(=O)N2C)cc1`, the IFI is 0%. Next, `COc1ccc(CN2CCN(C(=O)c3cccnc3)CC2)cc1OC`: 0%; `Cc1ccc(NC(=O)C2CSC(c3cccc(F)c3)N2C(=O)c2ccc(C(C)(C)C)cc2)cc1` (stereo not given): 3.06%; `CCCN(CC(=O)Nc1cc(C(C)(C)C)nn1-c1cccc(C)c1C)C(=O)C(C)(C)C`: 0.917%. With `COc1ccc(Nc2nc(NN=Cc3cccc(I)c3)nc(Nc3ccc([N+](=O)[O-])cc3)n2)cc1` the figure was 5.81%. `CCC(c1nc2cc(Cl)ccc2c(=O)n1CC)N(CC)C(=O)c1ccc2ccccc2c1` (stereo not given) displayed an IFI of 1.85%. With `O=C(c1ccccc1)N1CCc2nc(Cc3ccc(F)cc3Cl)sc2C1` the figure was 1.39%. With `CCCCOC(=O)c1ccc(NC2=C(c3ccc(OC)cc3)C(=O)c3ccccc32)cc1` the figure was 0%; with `Cc1ccc(Cn2c(=N)n(CC(O)c3ccc(Cl)c(Cl)c3)c3ccccc32)cc1` (stereo not given), 0%.

For the compound `CC[n+]1c(C)cc2c([nH]c3ccccc32)c1C`, the IFI came to 3.03%.

Consider `COCCNCC(O)CON=C1c2ccccc2-c2ccccc21` (stereo not given), for which the IFI was determined as 0%. Next, `CC(Cc1ccsc1)Nc1nc2nonc2nc1N(C)C` (stereo not given): 0%; `O=C(O)c1c[nH]c2cc(N3CCCCCC3)c(F)cc2c1=O`: 0%; `Nc1c(Cl)c(Cl)nc(C(Cl)(Cl)Cl)c1Cl`: 1.39%. With `Cc1ccc(C(CCNc2ncnc3c2[nH]c2ccccc23)c2ccco2)cc1` (stereo not given) the figure was 9.09%; with `Cc1ccc(N=C2S/C(=C\c3c(Cl)cccc3Cl)C(=O)N2c2ccc(C)c(C)c2)cc1C`, 0%; with `CCC(c1nc2ccccc2c(=O)n1-c1ccc(Br)cc1)N(CCc1ccccc1)C(=O)c1cccc(C(F)(F)F)c1` (stereo not given), 1.87%. Next, `CC1(C)Cc2c(sc(NC(=O)CCl)c2C#N)CO1`: 8.33%; `CCOC(=O)c1c[nH]c2c(CC)cccc2c1=O`: 1.59%; `COc1ccc2nc(C)cc(Nc3ccc(Br)cc3)c2c1`: 3.03%.

The compound `Cc1ccc(C)c(S(=O)(=O)N=C2C=C(SCC(=O)O)C(=O)c3ccccc32)c1` yielded an IFI of 6.25%. With `C=C(Cl)CSc1nnc(CCNC(=O)c2ccc(C)cc2)n1-c1ccc(F)cc1` the figure was 1.72%. With `O=C(Nc1ccc2nc3n(c(=O)c2c1)CCCCC3)C(=O)N1CCN(c2cccc(Cl)c2)CC1` the figure was 4.35%; with `Cc1cccc(CC(=O)N2CCC[C@@H]3CN(C(=O)CCc4cccnc4)CC[C@@H]32)c1`, 0.98%; with `Cc1cc(N2CCCCC2)nc2ccc(NC(=O)c3cccc([N+](=O)[O-])c3)cc12`, 8.06%. Next, `CCC(Nc1ccc(OC)cc1)=C1C(=O)CC(C)(C)CC1=O`: 0%. Turning to `COc1ccc2nc(-c3ccccc3)cc(O)c2c1`, the IFI stood at 14.2%. Next, `N#Cc1c(N)nc(SCC(=O)c2ccc(Cl)cc2)c(C#N)c1-c1ccco1`: 0.714%; `CCN(CC)CCCC(C)Nc1ccnc2ccc(-c3ccccc3)cc12` (stereo not given): 7.69%. With `Fc1ccccc1Nc1nc(NCc2ccccc2)c2ccccc2n1` the figure was 7.14%. Next, `CC(C)(C)NCC(O)Cn1c2ccc(Br)cc2c2cc(Br)ccc21` (stereo not given): 1.63%; `COc1ccc(S(=O)(=O)N=C2C=C(Nc3ccc(O)cc3)C(=O)c3ccccc32)cc1`: 23.1%. The compound `Cc1ccc(NC(=O)c2c(I)cnn2C)cc1[N+](=O)[O-]` yielded an IFI of 2.35%. With `COCCCNC(=O)CSCc1nc(-c2ccccc2F)oc1C` the figure was 0%; with `CCOc1ccccc1C1NC(=O)NC(C)=C1C(=O)OCC(F)(F)C(F)(F)F` (stereo not given), 1.16%; with `Cc1cc(Nc2cccc(C(F)(F)F)c2)nc2ccc(NC(=O)c3cncc(Br)c3)cc12`, 0%. As for `O=C(c1cnsn1)N1CCCC(COc2cccc(CN3CCC(Cc4ccccc4)CC3)c2)C1` (stereo not given), the IFI was 1.94%. With `Nc1ccc(-c2nc3cc(Cc4ccc5[nH]c(-c6ccc(N)cc6)nc5c4)ccc3[nH]2)cc1` the figure was 10.3%. Regarding `OC(CN1CCN(c2ccnc3cc(Cl)ccc23)CC1)CN1CCN(c2ccnc3cc(Cl)ccc23)CC1`, the IFI is 6.67%. With `COc1ccc2nc3ccccc3c(N)c2c1` the figure was 0.99%; with `CN1CCN(Nc2ccnc3cc4ccccc4cc23)CC1`, 7.14%.

Turning to `O=c1oc(-c2ccccc2F)nc2sc3c(c12)CCCC3`, the IFI came to 1.04%. With `COc1ccc2cc(CNCCCO)c(N3CCN(c4ccc(F)cc4)CC3)nc2c1` the figure was 1%; with `C=CCNCc1cc(-c2cc(OC)ccc2OC)ccc1O`, 0.848%. `O=C(O)CS(=O)(=O)c1ccc(C(=O)NCC(c2cccnc2)N2CCOCC2)cn1` (stereo not given) displayed an IFI of 1.37%. Next, `CCOC(=O)c1c(NC(=O)C(C)Sc2ncnc3c2oc2ccccc23)sc2c1CCC2` (stereo not given): 8.57%; `CCC(=O)N1CCc2cc(S(=O)(=O)N3CCN(c4cccc(C(F)(F)F)c4)CC3)ccc21`: 5.71%. In the case of `CCCCC(CC)C(=O)N1CCN(C(CC)c2nc3ccccc3c(=O)n2C)CC1` (stereo not given), the IFI came to 0%. In turn, `O=C(CCl)Nc1ccc(N2CCCCCC2)cc1` showed an IFI of 0%.

In turn, `O=C(Nc1ccc(F)c(Cl)c1)c1c2c(nc3ccccc13)CCN(Cc1ccccc1)C2` gave an IFI of 3.03%.

`CCOC(=O)c1ccc(N2C(=O)c3[nH]nc(C)c3C2c2ccccc2OC)cc1` (stereo not given) registered an IFI of 0%.

The compound `FC(F)(F)c1cccc(-c2cc(NCCCn3ccnc3)nc(-c3ccncc3)n2)c1` came in with an IFI of 2.04%. Next, `CCN1CCN(Cc2ccc(N(CC)CC)cc2)CC1`: 0%.

As to `CCCCOc1cccc(C(=O)N(Cc2cccs2)c2ccc(OC)cc2)c1`, the IFI came to 0%.

Regarding `O=C1CC(c2ccccc2)CC2=C1C(c1cccc(Cl)c1Cl)Nc1ccccc1N2` (stereo not given), the IFI was found to be 4.71%.

With `CC(C)N1CCc2c(sc(NC(=O)C(C)(C)C)c2C(N)=O)C1`, the IFI amounted to 0%. Next, `CC(C)(C)c1nn(-c2ccc(Cl)cc2)c2[nH]c(=O)c(CNCc3ccccc3)cc12`: 2.56%; `Cc1ccn2c(NC(C)(C)CC(C)(C)C)c(-c3ccccc3OC(=O)c3ccc(Cl)cc3)nc2c1`: 3.74%.

In turn, `CCCCn1c(=N)c(C(=O)NC(C)c2ccccc2)cc2c(=O)n3cccc(C)c3nc21` (stereo not given) had an IFI of 0%.
